From the supplement of paper PMC4604168 (melanoma cell lines)
The list shows a part of the results. Many values rest on one well or one pass, so single values are uncertain.

tested on: A2058; test: cell count relative to DMSO control; melanoma cells; higher = more viable cells; settings: library dose: standard library concentration; 72 h
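Also: cells treated in 1,536-well plates, then fixed and DAPI-stained, with nuclei counted from automated high-throughput microscope images.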

SMILES	cell count [%]
C[C@@H](N)c1ccc(C(=O)Nc2ccnc3[nH]ccc23)cc1 + C[As](C)SC[C@H](NC(=O)CC[C@H](N)C(=O)O)C(=O)NCC(=O)O [Darinaparsin] (first compound 2 µM, partner dose 2 µM)	88.7
NC1(c2ccc(-c3nc4ccn5c(=O)[nH]nc5c4cc3-c3ccccc3)cc2)CCC1 + C[As](C)SC[C@H](NC(=O)CC[C@H](N)C(=O)O)C(=O)NCC(=O)O [Darinaparsin] (first compound 2 µM, partner dose 2 µM)	65.3
CCCCCCCCCCCCCCCCCCOP(=O)([O-])OC1CC[N+](C)(C)CC1 [Perifosine] + N.N.[Cl][Pt][Cl] [cisplatin] (first compound 2 µM, partner dose 8 µM)	100
O=C(Nc1cc(C(F)(F)F)cc(C(F)(F)F)c1)c1cc(Cl)ccc1O + Cn1cc(C2=C(c3cn(C4CCN(Cc5ccccn5)CC4)c4ccccc34)C(=O)NC2=O)c2ccccc21 [Enzastaurin] (first compound 0.08 µM, partner dose 4 µM)	119
Cc1cn(-c2cc(NC(=O)c3ccc(C)c(Nc4nccc(-c5cccnc5)n4)c3)cc(C(F)(F)F)c2)cn1 [nilotinib] + Cn1cc(C2=C(c3cn(C4CCN(Cc5ccccn5)CC4)c4ccccc34)C(=O)NC2=O)c2ccccc21 [Enzastaurin] (first compound 1 µM, partner dose 4 µM)	80.6
CN(c1ncccc1CNc1nc(Nc2ccc3c(c2)CC(=O)N3)ncc1C(F)(F)F)S(C)(=O)=O + N.N.[Cl][Pt][Cl] [cisplatin] (first compound 0.4 µM, partner dose 8 µM)	82.4
COc1ccc(C2=N[C@@H](c3ccc(Cl)cc3)[C@@H](c3ccc(Cl)cc3)N2C(=O)N2CCNC(=O)C2)c(OC(C)C)c1 [Nutlin-3] + C[C@]12O[C@H](C[C@]1(O)CO)n1c3ccccc3c3c4c(c5c6ccccc6n2c5c31)CNC4=O [Lestaurtinib] (first compound 0.5 µM, partner dose 0.02 µM)	94.3
C[C@]1(O)C[C@@H](c2nc(-c3ccc4ccc(-c5ccccc5)nc4c3)c3c(N)nccn32)C1 + C[As](C)SC[C@H](NC(=O)CC[C@H](N)C(=O)O)C(=O)NCC(=O)O [Darinaparsin] (first compound 2 µM, partner dose 2 µM)	126
CCCCCCCCCCCCCCCCCCOP(=O)([O-])OC1CC[N+](C)(C)CC1 [Perifosine] + C[As](C)SC[C@H](NC(=O)CC[C@H](N)C(=O)O)C(=O)NCC(=O)O [Darinaparsin] (first compound 2 µM, partner dose 2 µM)	99.9

tested on: A375; test: as above; settings: library dose: standard library concentration; 72 h

SMILES	cell count [%]
O=c1[nH]nc(Sc2ncc([N+](=O)[O-])s2)n1-c1ccc2c(c1)OCCO2 + C[C@]12O[C@H](C[C@]1(O)CO)n1c3ccccc3c3c4c(c5c6ccccc6n2c5c31)CNC4=O [Lestaurtinib] (first compound 1 µM, partner dose 0.02 µM)	102
COc1cc([C@@H]2c3cc4c(cc3[C@@H](O[C@@H]3O[C@@H]5CO[C@@H](C)O[C@H]5[C@H](O)[C@H]3O)[C@H]3COC(=O)[C@H]23)OCO4)cc(OC)c1O [etoposide] + N.N.[Cl][Pt][Cl] [cisplatin] (first compound 0.1 µM, partner dose 8 µM)	62.6
CC[C@]1(O)C[C@H]2CN(CCc3c([nH]c4ccccc34)[C@@](C(=O)OC)(c3cc4c(cc3OC)N(C=O)[C@H]3[C@@](O)(C(=O)OC)[C@H](OC(C)=O)[C@]5(CC)C=CCN6CC[C@]43[C@@H]65)C2)C1 [vincristine] + C[As](C)SC[C@H](NC(=O)CC[C@H](N)C(=O)O)C(=O)NCC(=O)O [Darinaparsin] (first compound 0.0005 µM, partner dose 2 µM)	62.2
O=C(/C=C/c1cccnc1)NCCCCC1CCN(C(=O)c2ccccc2)CC1 + N.N.[Cl][Pt][Cl] [cisplatin] (first compound 0.05 µM, partner dose 8 µM)	90.9
CC1(C)CCC(c2ccc(Cl)cc2)=C(CN2CCN(c3ccc(C(=O)NS(=O)(=O)c4ccc(N[C@H](CCN5CCOCC5)CSc5ccccc5)c(S(=O)(=O)C(F)(F)F)c4)cc3)CC2)C1 + C[As](C)SC[C@H](NC(=O)CC[C@H](N)C(=O)O)C(=O)NCC(=O)O [Darinaparsin] (first compound 2 µM, partner dose 2 µM)	84.3
N#CC[C@H](C1CCCC1)n1cc(-c2ncnc3[nH]ccc23)cn1 [ruxolitinib] + C[C@]12O[C@H](C[C@]1(O)CO)n1c3ccccc3c3c4c(c5c6ccccc6n2c5c31)CNC4=O [Lestaurtinib] (first compound 5 µM, partner dose 0.02 µM)	121
C[C@@H](Oc1cc(-c2cnn(C3CCNCC3)c2)cnc1N)c1c(Cl)ccc(F)c1Cl [Crizotinib] + C[As](C)SC[C@H](NC(=O)CC[C@H](N)C(=O)O)C(=O)NCC(=O)O [Darinaparsin] (first compound 1 µM, partner dose 2 µM)	112
CC[C@]1(O)C[C@H]2CN(CCc3c([nH]c4ccccc34)[C@@](C(=O)OC)(c3cc4c(cc3OC)N(C=O)[C@H]3[C@@](O)(C(=O)OC)[C@H](OC(C)=O)[C@]5(CC)C=CCN6CC[C@]43[C@@H]65)C2)C1 [vincristine] + Cn1cc(C2=C(c3cn(C4CCN(Cc5ccccn5)CC4)c4ccccc34)C(=O)NC2=O)c2ccccc21 [Enzastaurin] (first compound 0.0005 µM, partner dose 4 µM)	79.4
CCCS(=O)(=O)Nc1ccc(F)c(C(=O)c2c[nH]c3ncc(Cl)cc23)c1F + C[As](C)SC[C@H](NC(=O)CC[C@H](N)C(=O)O)C(=O)NCC(=O)O [Darinaparsin] (first compound 0.4 µM, partner dose 2 µM)	86.5
O=C(Nc1cc(C(F)(F)F)cc(C(F)(F)F)c1)c1cc(Cl)ccc1O + C[C@]12O[C@H](C[C@]1(O)CO)n1c3ccccc3c3c4c(c5c6ccccc6n2c5c31)CNC4=O [Lestaurtinib] (first compound 0.08 µM, partner dose 0.02 µM)	90.2
N#CC[C@H](C1CCCC1)n1cc(-c2ncnc3[nH]ccc23)cn1 [ruxolitinib] + C[As](C)SC[C@H](NC(=O)CC[C@H](N)C(=O)O)C(=O)NCC(=O)O [Darinaparsin] (first compound 5 µM, partner dose 2 µM)	90.3
CS(=O)(=O)c1ccc(C(=O)Nc2ccc(Cl)c(-c3ccccn3)c2)c(Cl)c1 [vismodegib] + N.N.[Cl][Pt][Cl] [cisplatin] (first compound 5 µM, partner dose 8 µM)	57.4
C=CCNC1=C2C[C@@H](C)C[C@H](OC)[C@H](O)[C@@H](C)/C=C(\C)[C@H](OC(N)=O)[C@@H](OC)/C=C\C=C(/C)C(=O)NC(=CC1=O)C2=O [Tanespimycin] + C[As](C)SC[C@H](NC(=O)CC[C@H](N)C(=O)O)C(=O)NCC(=O)O [Darinaparsin] (first compound 0.01 µM, partner dose 2 µM)	71.4
CNC(=O)c1cc(Oc2ccc(NC(=O)Nc3ccc(Cl)c(C(F)(F)F)c3)cc2)ccn1 [sorafenib] + C[As](C)SC[C@H](NC(=O)CC[C@H](N)C(=O)O)C(=O)NCC(=O)O [Darinaparsin] (first compound 2 µM, partner dose 2 µM)	87.1
Cc1cn(-c2cc(NC(=O)c3ccc(C)c(Nc4nccc(-c5cccnc5)n4)c3)cc(C(F)(F)F)c2)cn1 [nilotinib] + C[As](C)SC[C@H](NC(=O)CC[C@H](N)C(=O)O)C(=O)NCC(=O)O [Darinaparsin] (first compound 1 µM, partner dose 2 µM)	109
CS(=O)(=O)c1ccc(C(=O)Nc2ccc(Cl)c(-c3ccccn3)c2)c(Cl)c1 [vismodegib] + C[As](C)SC[C@H](NC(=O)CC[C@H](N)C(=O)O)C(=O)NCC(=O)O [Darinaparsin] (first compound 5 µM, partner dose 2 µM)	91
CN(c1ncccc1CNc1nc(Nc2ccc3c(c2)CC(=O)N3)ncc1C(F)(F)F)S(C)(=O)=O + C[As](C)SC[C@H](NC(=O)CC[C@H](N)C(=O)O)C(=O)NCC(=O)O [Darinaparsin] (first compound 0.4 µM, partner dose 2 µM)	70.5
CC(=O)O[C@@]12CO[C@@H]1C[C@H](O)[C@@]1(C)C(=O)[C@H](O)C3=C(C)[C@@H](OC(=O)[C@H](O)[C@@H](NC(=O)OC(C)(C)C)c4ccccc4)C[C@@](O)([C@@H](OC(=O)c4ccccc4)[C@H]21)C3(C)C [Docetaxel] + N.N.[Cl][Pt][Cl] [cisplatin] (first compound 0.0005 µM, partner dose 8 µM)	84.9
COc1cc([C@@H]2c3cc4c(cc3[C@@H](O[C@@H]3O[C@@H]5CO[C@@H](C)O[C@H]5[C@H](O)[C@H]3O)[C@H]3COC(=O)[C@H]23)OCO4)cc(OC)c1O [etoposide] + Cn1cc(C2=C(c3cn(C4CCN(Cc5ccccn5)CC4)c4ccccc34)C(=O)NC2=O)c2ccccc21 [Enzastaurin] (first compound 0.1 µM, partner dose 4 µM)	68.4
